# Measured values published in PubChem BioAssay AID1259400 (National Center for Advancing Translational Sciences (NCATS), 2018).
# The campaign covered roughly 350,000 compounds. About 2,100 (0.6%) were called active. The shares of active, inactive and inconclusive entries below differ from those in the screen.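 Rule for the calls: active = activity change of -60% or lower, but not beyond a set lower limit; inconclusive = change between -60% and -40%, or beyond the set limit; inactive = change above -40%.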
# Target: Relaxin receptor 1 (Homo sapiens) (UniProt Q9HBX9)
# UniProt Q9HBX9, sequence (Q9HBX9 whole entry, looked up): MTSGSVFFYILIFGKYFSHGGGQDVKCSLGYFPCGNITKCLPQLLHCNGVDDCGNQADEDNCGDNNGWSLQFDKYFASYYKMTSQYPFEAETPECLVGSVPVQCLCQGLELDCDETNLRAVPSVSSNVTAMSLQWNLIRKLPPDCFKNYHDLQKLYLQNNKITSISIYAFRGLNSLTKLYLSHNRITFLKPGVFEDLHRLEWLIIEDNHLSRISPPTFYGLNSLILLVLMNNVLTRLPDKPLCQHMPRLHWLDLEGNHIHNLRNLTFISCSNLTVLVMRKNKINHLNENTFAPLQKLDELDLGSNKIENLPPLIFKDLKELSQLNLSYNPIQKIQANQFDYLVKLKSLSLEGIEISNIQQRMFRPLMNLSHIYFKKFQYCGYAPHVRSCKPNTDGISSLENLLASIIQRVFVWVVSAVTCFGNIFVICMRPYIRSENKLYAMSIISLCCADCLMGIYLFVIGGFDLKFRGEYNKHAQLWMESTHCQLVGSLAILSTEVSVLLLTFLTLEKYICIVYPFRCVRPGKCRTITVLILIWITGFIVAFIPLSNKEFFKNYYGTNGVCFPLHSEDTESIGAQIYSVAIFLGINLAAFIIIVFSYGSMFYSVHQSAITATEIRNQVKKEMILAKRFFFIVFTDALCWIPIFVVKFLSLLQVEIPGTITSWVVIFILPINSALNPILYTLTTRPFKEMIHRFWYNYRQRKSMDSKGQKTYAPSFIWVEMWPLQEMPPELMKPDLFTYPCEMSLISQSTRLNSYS
# Test: qHTS Assay for Antagonists of the Relaxin Receptor RXFP1
# Settings: HEK293-RXFP1, relaxin-stimulated cAMP HTRF, 30 min; at 57.5 µM; stronger effect = lower value
# % is set by controls: 0 for no effect and ±100 for the full control effect.
row,SMILES,"activity change, negative = inhibition"
1,COc1ccc(C=C2SC(=S)NC2=O)cc1,inconclusive: -44.8%
2,O=C(Nc1nc(-c2ccccc2)cs1)NC1CCCCC1,inconclusive: -50.9%
3,Cn1cnnc1SCCn1c(N2CCCCC2)nc2c1c(=O)[nH]c(=O)n2C,inactive: -7.65%
4,CCOC(=O)c1nnn(C(CC)C(=O)Nc2ccc(F)cc2)c1C(=O)OCC (configuration not stated),inactive: -19.6%
5,Cc1ccc(C2CC(=O)c3cnc(NC(=O)c4ccco4)nc3C2)cc1 (configuration not stated),inactive: -6.25%
6,CSCCC(NC(=O)c1ccco1)C(=O)Nc1ccc(C)cn1 (configuration not stated),inactive: -8.23%
7,COc1ccccc1Nc1c2c(nc3ccc(NC(=O)c4ccccc4F)cc13)CCCC2,active: -66.1%
8,Cc1ccc(C)c(N2CCN(CCCNC(=O)c3cnn(-c4ccccc4)c3C3CCN(C(=O)OC(C)(C)C)CC3)CC2)c1,inconclusive: -58%
9,O=C(O)c1ccc(N/N=C/c2cn(Cc3ccccc3F)c3ccccc23)cc1,inconclusive: -46.6%
10,COc1ccc(-n2cc(CN(C)C3CCOCC3)c(-c3cccc(F)c3)n2)cc1,inconclusive: -48%
11,Oc1ccccc1C1CCCCC1c1ccccc1 (configuration not stated),inconclusive: -41.3%
12,CCOC(=O)c1c(C)n(C)c2cc(CN(C)C)c(O)c(S(=O)(=O)c3ccccc3)c12,inconclusive: -42.5%
13,CCCNC(=O)Cn1c(=O)c2cccn2c2cccnc21,inactive: 3.83%
14,Cc1cc(=O)[nH]c2ccc(S(=O)(=O)Nc3ccc(O)cc3)cc12,inactive: 3.79%
15,Cc1cc(N2CCOCC2)ccc1/C=C1/SC(=O)NC1=O,inconclusive: -45.2%
16,COc1ccc(NC(=O)CCCc2nc3ccccc3c(=O)[nH]2)cc1Cl,inactive: -2.26%
17,Fc1ccc(C2c3[nH]c4ccccc4c3CCN2Cc2ccoc2)cc1 (configuration not stated),inconclusive: -51.6%
18,COc1ccc(-c2nnc(NC(=O)CS(=O)(=O)c3ccc(Cl)cc3)o2)c(OC)c1,inconclusive: -47.5%
19,CCCN1CCc2c(sc(NC(=O)C3CCN(S(=O)(=O)c4cccs4)CC3)c2C(N)=O)C1,inconclusive: -51.5%
20,Cc1cc(C)c(OCCCCNCc2ccccc2)c(Cl)c1,active: -107%
21,COc1ccc(-c2cc(C(=O)OCC(=O)N(C)C3CCS(=O)(=O)C3)c3ccccc3n2)cc1OC (configuration not stated),inconclusive: -49.5%
22,FC(F)C(F)(F)Oc1cccc(-c2n[nH]c(=S)n2Cc2ccccc2)c1,inconclusive: -56.7%

row,SMILES,"activity change, negative = inhibition"
1,CCCC(=O)OCCNc1cc(SCc2ccco2)c2nonc2c1[N+](=O)[O-],inconclusive: -58.2%
2,COc1ccccc1/C=C/C=N/n1c(-c2ccccc2)n[nH]c1=S,inactive: -4.84%
3,CCCCCC(=O)N(Cc1ccccc1)c1c(N)n(CCOC)c(=O)[nH]c1=O,inactive: -6.73%
4,CCc1cc2c(CN3CCN(C)CC3)cc(=O)oc2cc1O,inactive: 1.03%
5,Cc1nc2ccccc2c2oc(C(=O)NCC3COc4ccccc4O3)cc12 (configuration not stated),active: -83.7%
6,CC(=O)N1CC2(c3ccccc3)CN(C(C)=O)CC(c3ccccc3)(C1)C2=O,inconclusive: -40.3%
7,COc1ccccc1/C=C/C=N/NC(=O)c1cc(-c2ccc(C)o2)[nH]n1,inconclusive: -55%
8,COc1cccc(CC2(CO)CCCN(CC3=Cc4cc(Cl)ccc4OC3)C2)c1 (configuration not stated),inconclusive: -48.1%
9,COc1ccccc1C(=O)NC(=O)COc1ccc(Cl)cc1Cl,inconclusive: -46.4%
10,COc1cccc(-c2nc(SCC(=O)NCc3ccco3)c3c(=O)n(C)c(=O)n(C)c3n2)c1,inactive: 1.07%
11,COc1cccc(-c2noc(C3CCCN(C(=O)c4ccccc4OC)C3)n2)c1 (configuration not stated),inactive: -3.72%
12,O=C1N=C(N2CCc3ccccc3C2)S/C1=C\c1ccc(O)cc1,inconclusive: -59.6%
13,Cc1ccc(C(=O)OCC(=O)Nc2ccc3[nH]c(=O)[nH]c3c2)cc1[N+](=O)[O-],inconclusive: -52.8%
14,Oc1ccccc1-c1cc(-c2ccc(F)cc2)n[nH]1,inconclusive: -42.3%
15,O=C(NCCc1cccc(Cl)c1)c1ccc(Cl)c([N+](=O)[O-])c1,inconclusive: -43.5%
16,CCCC(=O)NC(c1ccccc1Cl)c1ccc2cccnc2c1O (configuration not stated),active: -81.7%
17,Cc1ccc(C2(CCNC(C)c3cccs3)CCOC(C(C)C)C2)cc1 (configuration not stated),inconclusive: -51.7%
18,Cc1ccc(-n2c(Cl)c(Cl)nc(Cl)c2=O)cc1,active: -103%
19,COc1ccc(NC(=O)CSC2=Nc3ccccc3C3=NC(CCC(=O)NCCc4ccccc4)C(=O)N23)c(OC)c1 (configuration not stated),inconclusive: -59.5%
20,O=C(Nc1cc(F)ccc1F)c1cc2nc(-c3ccco3)cc(C(F)(F)Cl)n2n1,inactive: -2.38%
21,COc1ccccc1/C=N/N1CCN(Cc2ccccc2Cl)CC1,inconclusive: -45.6%
22,COc1ccccc1OCC(=O)/C=C1/N(C)c2ccccc2C1(C)C,inactive: -29.9%

row,SMILES,"activity change, negative = inhibition"
1,CCOC(=O)C1(Cc2ccccc2C)CCCN(C(=O)c2cc(C3CC3)[nH]n2)C1 (configuration not stated),inconclusive: -45.2%
2,COc1cc2[nH]c(=O)n(CCCCCC(=O)N3CCN(c4ccccc4)CC3)c(=O)c2cc1OC,inactive: -3.75%
3,CC(NC(=O)c1ccccc1NC(=O)c1ccco1)c1ccccc1 (configuration not stated),inconclusive: -42.8%
4,Cc1c(NC(=S)NC(=O)c2ccc(COc3ccccc3)cc2)cccc1C(=O)O,inconclusive: -42.2%
5,CCCCC(=O)OC1=C(C(=O)c2ccccc2)N(CC)S(=O)(=O)c2ccccc21,inconclusive: -45.2%
6,O=C(OC1CCOC1=O)c1cc(-c2cccs2)nc2ccccc12 (configuration not stated),inactive: -9.14%
7,CCc1ccc(NC(=O)c2ccccc2Br)cc1,inconclusive: -50.8%
8,CN1CCN(CCCOc2ccc(-c3ccccc3)cc2)CC1,inconclusive: -43.9%
9,CCC(=O)Nc1cccc(-c2cc3ccccc3oc2=O)c1,inactive: 9.34%
10,Cc1[nH]c2ccccc2c1CN1CCC(Cc2ccccc2)CC1,inconclusive: -59.1%
11,Cc1cccc(CNC(=O)c2oc3c(c2C)-c2nn(Cc4cccc(Cl)c4)cc2CC3)c1,inconclusive: -58%
12,COc1ccccc1N1CCN(S(=O)(=O)CCNC(=O)C2CC2)CC1,inconclusive: -56.9%
13,Cc1ccc(C(NC(=O)c2ccccc2S(C)(=O)=O)c2ccccc2)cc1 (configuration not stated),inconclusive: -43.5%
14,CN(C)c1ccc(C=c2c3ccccc3n3c2cc(-c2ccccc2)[n+]3C)cc1,inconclusive: -48.3%
15,CCN(CCNCC(O)COCc1ccc(Cl)cc1)c1cccc(C)c1 (configuration not stated),active: -70.2%
16,Cc1ccc2c(c1)N(C(=O)CCC(=O)NCCCN1CCOCC1)CCO2,inactive: 5.45%
17,COc1cccc(-c2cc(C(=O)Nc3ccncc3)c3ccccc3n2)c1,inconclusive: -47.5%
18,CCOc1ccc(NC(=O)c2c(NCc3sccc3C)sc3c2CCCCC3)cc1,inactive: -18.2%
19,O=C(CN1C(=O)c2ccccc2S1(=O)=O)NC(Nc1ccccc1F)C(Cl)(Cl)Cl (configuration not stated),active: -105%
20,CCOC(=O)N1CCc2c(sc(NCc3ccc(N(C)C)cc3)c2C(=O)Nc2ccc(OC)cc2)C1,inconclusive: -57.2%
21,OC(CN1CCCCC1)Cn1c2ccccc2c2cc(Br)ccc21 (configuration not stated),inconclusive: -53.6%
22,CCOC(=O)c1c(-c2ccc(C)cc2)cn2ccccc12,inactive: -13.6%

row,SMILES,"activity change, negative = inhibition"
1,CCCCCCCCC[n+]1cccc2c3ccccc3ccc21,active: -60.1%
2,CCc1ccc(CNC(=O)c2cnc3sc(N4CCCCC4)nn3c2=O)cc1,inactive: 1.13%
3,Cc1cccc2sc(N(CCN(C)C)C(=O)c3cc(Cl)sc3Cl)nc12,inconclusive: -44.8%
4,CC(C)CNc1nc(NC(C)(C)C)nc(Oc2ccc(=O)n(-c3ccccc3)n2)n1,inconclusive: -40.3%
5,CCC1C(=NO)C(CC)C(c2ccccc2)NC1c1ccccc1 (configuration not stated),active: -74.3%
6,C=CCOc1c(Cl)cc(CNc2ccc(N(C)C)cc2)cc1OC,active: -103%
7,Cc1nn2c(C)c(C(=O)N3CCN(c4ccccc4)CC3)cnc2c1-c1ccccc1,inconclusive: -53.9%
8,O=c1cc(Cl)c(-c2ccccc2)nn1Cc1ccc(Cl)cc1,inconclusive: -43.7%
9,CCc1ccccc1N(C(=O)c1snc(C(N)=O)c1N)C(C(=O)NCC1CCCO1)c1c[nH]c2ccccc12 (configuration not stated),inconclusive: -59%
10,Cc1c(C(=O)NNC(=S)NCc2ccc(Cl)cc2)oc2ccccc12,inconclusive: -44.4%
11,O=C(Nc1ccc(-c2noc(CCc3ccccc3)n2)cc1)c1cccnc1,inconclusive: -48.4%
12,O=C(N/N=C/c1cc([N+](=O)[O-])ccc1O)/C(=C\c1cccs1)NC(=O)c1ccccc1,inconclusive: -42.8%
13,Cc1c(CCC(C)C)c(=O)n2c([nH]c3ccccc32)c1C#N,inactive: -2.15%
14,CCOc1ccc(Oc2ccc(S(=O)(=O)N3CCOCC3)cc2NC(=O)CCNC(C)=O)cc1,inactive: -13.8%
15,COC(=O)c1ccc(-c2csc(NC(=O)c3c(C)noc3C)n2)cc1,inconclusive: -44.9%
16,Cc1cc(Cl)ccc1OCC(=O)NNC(=O)c1cnccn1,inconclusive: -44.1%
17,O=C(Nc1ccc(Cc2ccncc2)cc1)c1ccc(Br)o1,inconclusive: -56.8%
18,CCOc1ccccc1CN1CCc2nc(N3CCN(c4ccccc4F)CC3)ncc2C1,active: -60%
19,CCCCc1nn2c(=O)cc(COC(=O)c3cccc(NC(=O)c4cccs4)c3)nc2s1,inactive: -6.61%
20,CCOc1ccccc1NC(=O)N1CC(C)Oc2ccc(Cl)cc21 (configuration not stated),active: -82.9%
21,Oc1ccccc1CNc1cnc2ccccc2c1,inactive: -6.3%
